Test results reported in PMC6919601, “Identification of Plasmodium dipeptidyl aminopeptidase allosteric inhibitors by high throughput screening” (PLoS ONE, 2019).
The campaign covered roughly 110,000 compounds. About 230 (0.21%) showed an effect of 50% or more. Some of the results follow.

molecular target: DPAP1 (Plasmodium falciparum, UniProt Q8IIJ9); assay: primary screen, percent inhibition; read by cleavage of a fluorogenic dipeptide substrate; higher = more effect of the substance; parameters: species or system P. falciparum D10 trophozoite lysates; single well
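Note: 30 min substrate incubation versus DMSO and 10 µM JCP410 controls.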

Chain of DPAP1 (Q8IIJ9 whole entry, looked up): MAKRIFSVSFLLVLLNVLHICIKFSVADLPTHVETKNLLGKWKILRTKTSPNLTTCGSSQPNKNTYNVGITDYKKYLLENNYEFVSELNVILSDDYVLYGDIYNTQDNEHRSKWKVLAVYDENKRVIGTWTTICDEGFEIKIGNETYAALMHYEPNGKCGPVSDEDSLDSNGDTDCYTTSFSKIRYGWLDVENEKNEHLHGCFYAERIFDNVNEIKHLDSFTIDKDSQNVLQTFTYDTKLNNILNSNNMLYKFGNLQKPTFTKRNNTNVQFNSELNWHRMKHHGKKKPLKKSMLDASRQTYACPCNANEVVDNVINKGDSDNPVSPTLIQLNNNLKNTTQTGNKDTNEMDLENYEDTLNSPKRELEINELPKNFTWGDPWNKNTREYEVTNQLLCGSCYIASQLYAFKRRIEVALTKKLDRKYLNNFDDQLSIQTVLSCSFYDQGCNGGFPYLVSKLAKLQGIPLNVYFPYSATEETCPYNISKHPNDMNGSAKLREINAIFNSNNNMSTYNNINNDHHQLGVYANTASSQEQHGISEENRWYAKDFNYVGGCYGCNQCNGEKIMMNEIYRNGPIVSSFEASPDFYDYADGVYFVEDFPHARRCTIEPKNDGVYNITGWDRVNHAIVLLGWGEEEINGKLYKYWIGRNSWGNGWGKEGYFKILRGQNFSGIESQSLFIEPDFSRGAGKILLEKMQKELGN

Compound | % Inhibition @ 10 uM
COc1ccc(NC(=O)CN(c2ccc(C(C)C)cc2)S(C)(=O)=O)c(OC)c1 | -0.796%
CCCc1ccc(OCC(O)CN2CCOCC2)cc1 (centres unmarked) | -0.424%
O=C(O)c1cc2cc(Br)ccc2oc1=O | 1.91%
COc1ccc(CNC(=O)C2Sc3nnc(-c4ccccc4)n3NC2c2ccc(Cl)cc2)cc1 (centres unmarked) | 0.0289%
CCCCC/C=C/C(=O)Nc1cccc2ccccc12 | 0.00178%
CC(=O)c1ccc(NS(=O)(=O)c2ccc(S(=O)(=O)N3CCOCC3)cc2)cc1 | -2.82%
CCc1c(-c2ccccc2)cn2c1-c1ccc(C)n1CC2 | 4.22%
COc1ccc(C(=O)C(OC(=O)c2cc3ccccc3oc2=O)c2ccccc2)cc1 (centres unmarked) | 12.3%
CC(C)CC(NC(=O)N1CCC(N2CCCCC2)CC1)C(=O)NC(CCc1ccccc1)CCS(=O)(=O)c1ccc2ccccc2c1 (centres unmarked) | -7.36%
N=C(N)CCCOc1ccccc1-c1ccccc1 | 5.66%
CCOc1ccc(CCNC(=O)CCS(=O)(=O)Cc2ccc(C)cc2)cc1OCC | 2.18%
[O-][n+]1onc2c1CCc1c-2nn(-c2ccc(Cl)cc2Cl)[n+]1[O-] | 7.73%
CCCCC1CCC(C(=O)Nc2nonc2C)CC1 (centres unmarked) | -5.08%
Cn1c(=O)c2c(ncn2CC(=O)Nc2ccc(Oc3ccc(F)cc3)cc2)n(C)c1=O | 4.94%
Cc1cccc(N2CCN(Cc3csc(-c4ccccc4)n3)CC2)c1C | 0.98%
Cc1cccc(C)c1NC(=O)CN(C)S(=O)(=O)c1cc(Cl)ccc1Cl | -0.318%
Cc1ccc(-c2cc(C(=O)Nc3ccccc3C(N)=O)c3ccccc3n2)o1 | 8.49%
CC(=O)c1ccc(NC(=O)c2cnccn2)cc1 | -0.641%
Clc1ccccc1N1CCN(C2CCC(c3ccccc3)CC2)CC1 (centres unmarked) | 1.67%
c1ccc(-c2ccc(-c3cnc(-c4ccccc4)o3)cc2)cc1 | -2.55%
CC(=O)C1=C(O)C(=O)N(c2cccnc2)C1c1ccc2c(c1)OCO2 (centres unmarked) | -4.69%
O=C(NCCCc1nc2ccccc2[nH]1)C12CC3CC(CC(C3)C1)C2 | -12.1%
c1ccc(CSc2nc3ccccc3n3cnnc23)cc1 | 11.6%
CSc1ncc(C(=O)Nc2ccncc2)c(-c2ccccc2)n1 | -3.19%
Cc1csc(NC(=O)CSc2c3c(nc4cc(Cl)ccc24)CCCC3)n1 | -1.7%

Compound | % Inhibition @ 10 uM
Cc1ccc(F)c(NC(=O)Nc2ccc(Cl)cc2)c1 | 1.29%
N#CC1=C(N)SC(N)=C(C#N)C1c1ccc([N+](=O)[O-])cc1 | 34.5%
O=C(O)c1ccccc1C(=O)NCCC1=CCCCC1 | 2.79%
CN(Cc1ccccc1)C(Cc1ccccc1)C(=O)O (centres unmarked) | -3.45%
c1ccc2[nH]c(SCCN3CCCCC3)nc2c1 | -1.99%
COCn1nnc(-c2ccccn2)n1 | 0.9%
COC(=O)[C@H](CC(C)C)NC(=O)[C@@H]1C=CCN1C#N | 0.744%
Cc1ccc(C(=O)c2sc3nc(-c4ccccc4)ccc3c2N)cc1 | 1.48%
CC(C)CC(NC(=O)OCc1ccccc1)C(=O)NC(CCc1ccccc1)C(=O)C1=N[C@@H](C)[C@H](c2ccccc2)O1 (some centres unmarked) | -5.64%
CCC(Cc1ccccc1)NS(=O)(=O)c1c(C)nc2sccn2c1=O (centres unmarked) | 3.02%
Cc1cc(/C=C2\Cc3ccccc3C2=O)c(C)n1-c1ccccc1 | -1.31%
COc1ccc(C2=N/C(=C\c3cccc(OC)c3OC)C(=O)O2)c(Cl)c1 | 3.1%
COc1ccc(-c2cn3c(n2)sc2cc(C(=O)NCC4CCCO4)ccc23)cc1 (centres unmarked) | 14.9%
COc1ccc(C(=O)c2oc3ccccc3c2NC(=O)C(C)(C)C)cc1 | -1.11%
CC[C@H](NC(=O)[C@H](CS(=O)(=O)Cc1ccccc1OC(F)F)NC(=O)N1CCOCC1)C(=O)c1nc2ncccc2o1 | 2.87%
Cc1cccc2cc(C(=O)CS(=O)(=O)c3ccc(Cl)cc3)c(=O)oc12 | -6.24%
O=CN1CCN(Cc2cc(F)ccc2F)CC1 | 1.05%
Cc1cc(C)c(C#N)c(SCc2nc3cccc(C)n3c2Br)n1 | 0.722%
COc1ccc2[nH]cc(CCNc3nc(C)c(C(C)=O)s3)c2c1 | -2.91%
Cc1ccc(S(=O)(=O)NC(C)C(=O)Nc2ccc(C(F)(F)F)cc2)cc1 (centres unmarked) | -1.61%
CC(=O)c1ccc(N2CCN(Cc3cccnc3)CC2)cc1 | 3.48%
Cc1[nH]c2ccccc2c1C(=O)CSc1ccccc1 | 3.31%
COCc1cc(C)nc2sc(C3=NC(C)(C)Cc4ccccc43)c(N)c12 | 3.21%
Cc1nn(C(C)C(=O)NCCc2ccc(Cl)cc2)c(=O)c2cc3sccc3n12 (centres unmarked) | -5.19%
CC1(C)CC2CC(C)(CN2Cc2cccc([N+](=O)[O-])c2)C1 (centres unmarked) | -1.41%
